# Out of some 43,000 compounds screened, about 200 (0.47%) were called active. Inconclusive results (about 12%) are left out. The call rests on the fitted dose curve; in most records, active means well fitted cell-killing curve with a large enough effect; inconclusive means small, poorly fitted or top-dose-only effect, or effect the other way; inactive means flat fitted curve, though single readings scatter. This is one part of the list.
# Assay: Cell viability qHTS assay in S16 Pmp22-F2sN cells; further: nearly all actives have a fitted effect of over 65% in size
# Details: S16 Pmp22-F2sN Schwann cells (luciferase reporters placed in the Pmp22 gene) viability, CellTiter-Glo, 24 h; series mostly up to 57.5 µM; activity change, negative = cytotoxicity: at the top concentration
# Summary of the method: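 S16 Schwann cells carrying the Pmp22-F2sN reporter, seeded in 1536-well format, were exposed to library compounds for 24 h at 37C. Viability was read as CellTiter-Glo luminescence after 15 min at room temperature.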
# On the % scale 0 is the no-effect control and ±100 the full control effect.
row,Compound,"activity change, negative = cytotoxicity"
1,Cc1ccccc1NC(=O)CN1C(=O)C(C)(C)c2ccccc21,inactive: 8.68%
2,COc1cccc(NC(=O)c2cc3c(=O)n(C)c4ccccc4c3n2C)c1,inactive: 15.4%
3,CCOc1ccc(S(=O)(=O)N(CC(=O)NCCc2ccc(OC)c(OC)c2)c2ccccc2)cc1,inactive: 24.7%
4,COc1ccc(NC(=O)CN2C(=O)CSc3ccc(S(=O)(=O)N4CCCC4)cc32)cc1OC,inactive: 8.09%
5,COc1ccc(OC)c(CCNC(=O)c2c(C)oc3ncn(C)c(=O)c23)c1,inactive: 1.57%
6,Cc1cccc(C)c1NC(=O)Cn1c(=O)n(CCC(=O)NCc2ccccc2Cl)c(=O)c2sccc21,inactive: 2.68%
7,CCOc1ccc(CN2CCN(c3ncnc4sc5c(c34)CC(C)CC5)CC2)cc1 (stereo not drawn),inactive: -11.4%
8,COc1ccccc1C(=O)Nc1nnc(S(=O)(=O)N(C)c2ccc(Cl)cc2)s1,inactive: -1.49%
9,CCc1ccc(S(=O)(=O)c2cn(CC)c3cc(N4CCOCC4)c(F)cc3c2=O)cc1,inactive: -28.4%
10,CC(=O)c1ccc(NC(=O)Cn2cc3c(n2)CCCC3)cc1,inactive: -12.2%
11,Cc1nc(-c2ccccc2)sc1CCNS(=O)(=O)c1ccccc1,inactive: -2.52%
12,CCOc1ccc2c(c1)c(=O)c(S(=O)(=O)c1ccccc1)cn2CC(=O)Nc1ccccc1OC,inactive: 7.34%
13,Cc1ccc(CNC(=O)C2CCN(S(=O)(=O)c3ccc4c(c3)CCCN4C(=O)C3CCC3)CC2)cc1,inactive: 0.145%
14,Cc1nn2c(=O)cc(COC(=O)CNC(=O)c3ccc(F)cc3)nc2s1,inactive: -0.618%
15,COc1ccc(C2=NC(C)(C)N(CC(=O)Nc3ccc(F)c(F)c3)C2=O)cc1,inactive: -15.1%
16,Cc1cccc(CNC(=O)c2cnc3sc(N4CCCCCC4)nn3c2=O)c1,inactive: 3.6%
17,COc1ccc(-c2nsc(NC(=O)c3oc4cc(C)c(C)cc4c3C)n2)cc1,inactive: 3.53%
18,Cc1ccc(N(Cc2cccs2)C(=O)COc2cccc(C)c2)cc1,inactive: -4.13%
19,CC(=O)c1ccc(NC(=O)Cn2c(=O)n(Cc3ccco3)c(=O)c3sc4ccccc4c32)cc1,inactive: -1.52%
20,Cc1ccc(NC(=O)c2c(C)nc3sc(C(=O)Nc4ccc(F)cc4)c(N)c3c2-c2ccccc2Cl)c(C)c1,inactive: 0.318%
21,COc1cccc(OC)c1C(=O)Nc1ccc(S(=O)(=O)Nc2nccc(C)n2)cc1,inactive: -1.72%
22,CCOc1ccc(CCNC(=O)CSc2cc(=O)n(C)c3ccc(Cl)cc23)cc1OCC,inactive: -0.312%
23,COc1ccccc1NS(=O)(=O)c1cc2c(cc1Cl)NC(=O)CO2,inactive: -20.9%
24,Cc1cccc(N2CCN(C(=O)CCSCc3ccccc3F)CC2)c1C,inactive: -11.9%

row,Compound,"activity change, negative = cytotoxicity"
1,COc1ccccc1N1CCN(C(=O)Cn2ncc3c(=O)oc4ccc(C)cc4c32)CC1,inactive: 13%
2,CN(C)S(=O)(=O)c1ccc(C(=O)Nc2ccc(-n3nncc3-c3ccccc3)cc2)cc1,inactive: -16.1%
3,CCCc1cnc2c(c1SCc1ccc(C(F)(F)F)cc1)c(=O)n(C)c(=O)n2C,inactive: -1.75%
4,CC(C)Oc1ccc(CNC(=O)c2ccc(Cn3c(=O)c4cccn4c4cccnc43)cc2)cc1,inactive: 7.65%
5,CCN1C(=O)C2(c3ccccc31)c1c(oc3ccc(F)cc3c1=O)C(=O)N2CCCOC (stereo not drawn),inactive: 3.68%
6,Cc1ccc(NC(=O)CSc2ccc(-c3sc(-c4ccccc4)nc3C)nn2)cc1F,inactive: 13.2%
7,CCSc1nn(CC(=O)Nc2cccc(Cl)c2)c(N)c1S(=O)(=O)c1ccc(OC)cc1,inactive: -26.3%
8,COc1cccc(CN(C(=O)c2cccc(C)c2)C2CCS(=O)(=O)C2)c1 (stereo not drawn),inactive: -0.074%
9,COc1ccc(OC)c(-c2noc(N3CCN(c4cccc(C)c4C)CC3)n2)c1,inactive: 15.2%
10,Cc1ccc(-n2nc3c(=O)n(CCCC(=O)NC(C)c4ccccc4)nc(C)c3c2C)cc1 (stereo not drawn),inactive: 7.35%
11,CC(C)CC(=O)Nc1nnc(S(=O)(=O)N2CCc3ccccc32)s1,inactive: 3.23%
12,Cc1ccc2oc(C(=O)Nc3sc4c(c3C(=O)NCc3cccnc3)CCCC4)cc(=O)c2c1,inactive: -21.8%
13,CCCN(CCC)C(=O)Cn1c(=O)n(Cc2ccc(C(=O)NCCc3ccc(Cl)cc3)cc2)c(=O)c2ccccc21,inactive: 15.1%
14,COc1ccccc1Cn1cc(C(=O)c2ccc(C)cc2)c(=O)c2cc(F)cc(F)c21,inactive: -3.9%
15,CCc1ccc(NC(=O)Cn2c(=O)n(-c3cc(C)cc(C)c3)c(=O)c3oc4ccccc4c32)cc1,inactive: 4.44%
16,COC(=O)c1ccccc1NC(=O)C1=C(C)C(=O)OC12CCC(C)CC2 (stereo not drawn),inactive: 3.49%
17,Cc1ccc(CSc2oc(-c3cccs3)nc2S(=O)(=O)c2ccc(C)cc2)cc1,inactive: 17.9%
18,CCCNC(=O)c1cnc2c(-c3ccc(OCC)c(OCC)c3)c(C)nn2c1-c1ccccc1,inactive: 4.01%
19,COc1cc(NC(=O)CC(c2cccs2)N2Cc3ccccc3C2=O)cc(OC)c1OC (stereo not drawn),inactive: 0.42%
20,CCc1cccc(NC(=O)Cn2nc3c4cc(F)ccc4n(Cc4cccc(C)c4)cc-3c2=O)c1,inactive: 17.6%
21,CCc1ccccc1N1C(=O)N(CC(=O)c2ccc(OC)cc2)c2ccccc2S1(=O)=O,inactive: 13.5%
22,CC(C)Oc1ccc(C(=O)Nc2nonc2-c2ccc(OC(C)C)cc2)cc1,inactive: 2.16%
23,COC(=O)CCN(C(=O)C1CCN(S(=O)(=O)c2c(C)noc2/C=C/c2ccccc2F)CC1)c1ccccc1,inactive: 3.22%
24,COc1ccc(NC(=O)C(=O)NCc2ccco2)cc1,inactive: 0.0184%

row,Compound,"activity change, negative = cytotoxicity"
1,CCN(CCCNC(=O)Cn1ncc2c([nH]c3ccc(C)cc32)c1=O)Cc1ccccc1,inactive: 1.86%
2,CC(C)n1c(=N)c(C(=O)NC2CCCCC2)cc2c(=O)n3ccccc3nc21,inactive: 5.83%
3,Clc1cccc(CSc2nnc(C3CCNCC3)o2)c1,inactive: 10.3%
4,CC(=O)Nc1ccc(S(=O)(=O)NCCS(=O)(=O)N2CCN(c3ccccc3F)CC2)cc1,inactive: 5.09%
5,COc1cccc(Nc2nc3ccc(C(=O)c4ccccc4)cc3n3c(C)nnc23)c1,inactive: 4.28%
6,CCOc1ccc2cc(-c3nnc(Nc4ccc(C)cc4)s3)c(=O)oc2c1,inactive: -1.63%
7,Cc1ccccc1OCc1ccc(-c2nc(C#N)c(N3CCC(C(N)=O)CC3)o2)o1,inactive: 1.9%
8,Cc1ccccc1NS(=O)(=O)c1nnc(NC(=O)c2ccco2)s1,inactive: 7.17%
9,CCOC(=O)c1c(S(=O)(=O)NCC(=O)N(C)c2ccc(C)cc2)c(C)n(C)c1C,inactive: -0.877%
10,COc1ccc(CCC(=O)NCCc2csc(-c3cccc(C)c3)n2)cc1,inactive: 13%
11,Cc1ccc(C)c(CN2C(=O)c3ccccc3S(=O)c3ccc(C(=O)NCCC4=CCCCC4)cc32)c1 (stereo not drawn),inactive: -0.429%
12,Cc1ccccc1-c1nc(SCC(=O)N(C)c2ccccc2)c2c(=O)n(C)c(=O)n(C)c2n1,inactive: -1.41%
13,O=C(Nc1ccc(Cl)c(-c2nc3cc(Cl)ccc3o2)c1)c1cc2ccccc2o1,inactive: 13.8%
14,Cc1ccc(C2CCN(C(=O)Nc3ccc(C)c(C)c3)C2)cc1 (stereo not drawn),inactive: 12.3%
15,COc1cccc(C(=O)Nc2ccc(S(=O)(=O)N(Cc3ccccc3)c3ccccc3)cc2)c1,inactive: -22.8%
16,CCS(=O)(=O)N1CCc2cc(C(=O)NCCc3ccc(OC)c(OC)c3)ccc21,inactive: -0.0189%
17,Cc1ccc(C(=O)Nc2ccc3[nH]c(=O)c(=O)[nH]c3c2)cc1,inactive: 3.06%
18,CC(C)Oc1ccc(CNC(=O)Cn2c(-c3cccs3)cc3ccccc32)cc1,inactive: 10.7%
19,CC(=O)c1ccc(N2CCN(C(=O)C3CCN(S(=O)(=O)c4c(C)noc4/C=C/c4ccccc4F)CC3)CC2)cc1,inactive: 3.9%
20,Cc1ccc(NC(=O)c2sc3ncnc(N(C)C4CCCCC4)c3c2C)cc1,inactive: -1.29%
21,Cc1ccc(C)c(N2CCN(c3nc4ccccc4c(=O)n3-c3ccccc3)CC2)c1,inactive: -1.38%
22,O=c1c2c3c(sc2n(Cc2ccc(F)cc2Cl)c(=O)n1-c1ccc(Cl)cc1)CCC3,inactive: -3.45%
23,Cc1cc(C)c(Cn2c(=O)n(CCCCC(=O)NCc3ccccc3Cl)c(=O)c3ccccc32)c(C)c1,inactive: -7.63%
24,CCC(=O)Nc1ccccc1-c1nc2ccccc2n(C(CC)C(=O)Nc2cccc(Cl)c2)c1=O (stereo not drawn),inactive: 3.83%

row,Compound,"activity change, negative = cytotoxicity"
1,CCOC(=O)c1c(C)sc(-c2c(-c3cccc(Cl)c3)[nH]c3c2c(=O)n(C)c(=O)n3C)c1O,inactive: 1.37%
2,COc1ccc(NC(=O)C2=C(C)Nc3ncnn3C2c2ccc[nH]2)cc1 (stereo not drawn),inactive: -0.848%
3,Cc1ccc(CNC(=O)CCc2cn(Cc3ccc(C)cc3)c3ccccc23)cc1,inactive: 13.3%
4,CCOc1ccc(-c2cc3nc(C4CCN(C(=O)OC(C)(C)C)CC4)c(C(=O)Nc4c(C)cccc4C)cn3n2)cc1,inactive: 4.4%
5,C=Cc1ccc(Cn2ccn(-c3ccc(F)c(F)c3)c(=O)c2=O)cc1,inactive: -2.47%
6,Cc1c(C(=O)N(C)C)sc2c1c(=O)n(-c1ccc(F)cc1)c(=O)n2Cc1ccccc1C#N,inactive: 1.61%
7,CCc1ccccc1N(C)S(=O)(=O)c1ccc2c(c1)C(C)(C)C(=O)N2C,inactive: 17.8%
8,CC(=O)Nc1ccc(NC(=O)C2CCN(c3cnccn3)CC2)cc1,inactive: 7.78%
9,Fc1ccc2c(c1)-c1c(cnc3cc(-c4ccc(Cl)cc4)nn13)CO2,inactive: 17%
10,COc1cccc(NC(=O)c2csnn2)c1,inactive: -18.6%
11,CCN(CC)S(=O)(=O)c1nnc(NC(=O)c2ccc(Br)cc2)s1,inactive: -25.9%
12,COc1ccc(-c2nc(CSc3nnc(C)n4c3cc3oc(C)cc34)c(C)o2)cc1OC,inactive: 13.4%
13,COc1ccc(CCNC(=O)C2CCCN(S(=O)(=O)c3ccc4c(c3)oc(=O)n4C)C2)cc1OC (stereo not drawn),inactive: 2.74%
14,O=S(=O)(c1ccccc1)c1nc(-c2cccc(Cl)c2)oc1N1CCOCC1,inactive: -11.6%
15,Cc1cc(NC(=O)Cn2c(=O)oc3cc(S(=O)(=O)N4CCCC4)ccc32)ccc1Br,inactive: -2.27%
16,O=C(Cn1ncc2c(=O)oc3ccccc3c21)N1CCN(c2ccc(Cl)cc2)CC1,inactive: 8.83%
17,COc1ccc(-n2nc3c(N4CCC(C(=O)NCCc5ccccc5)CC4)nnc(C)c3c2C)cc1,inactive: -2.77%
18,COc1cccc(CSc2nc(-c3ccccc3F)nc3c2Cc2c(CO)cnc(C)c2O3)c1,inactive: 0.55%
19,COc1ccc2cc(CNc3ccc(C)cc3)c(=O)n(CC(=O)Nc3cccc(Cl)c3C)c2c1,inactive: 5.21%
20,CCOC(=O)c1c(NC(=O)COc2ccccc2Br)sc2c1CCCCC2,inactive: -13.1%
21,Cc1ccc(-c2nnc(Nc3ccccc3)c3ccccc23)cc1S(=O)(=O)N1CCN(C)CC1,inactive: -3.41%
